Publication PMC7819943, “Rice protein-binding microarrays: a tool to detect cis-acting elements near promoter regions in rice”
This is one part of the list.

Molecular target: T1, OsWOX13 (Oryza sativa, UniProt Q5QMM3 1-267)
T1 sequence: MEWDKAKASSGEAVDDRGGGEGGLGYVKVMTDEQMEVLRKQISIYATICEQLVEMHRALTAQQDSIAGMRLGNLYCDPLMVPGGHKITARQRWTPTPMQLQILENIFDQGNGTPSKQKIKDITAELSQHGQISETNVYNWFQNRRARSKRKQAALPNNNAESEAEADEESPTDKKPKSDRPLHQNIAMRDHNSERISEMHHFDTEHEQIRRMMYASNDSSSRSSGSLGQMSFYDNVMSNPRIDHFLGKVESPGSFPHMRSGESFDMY
Test: protein-binding microarray (RPBM); PBS, 2% BSA, 51.3 ng/ul salmon testes DNA, 50 uM zinc acetate, 200 nM TF, 25 C, 1 h; high values mean tight binding
Conditions: protein: recombinant; tags: N-terminal polyhistidine and DsRed monomer fusion (pET32a); label: CyDye5-dUTP incorporated in the synthesized complementary strand; 3' TTTTT single-stranded linker to array surface; dsDNA, one strand shown
Summary of the method: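 Transcription factors, each fused N-terminally to a polyhistidine tag and DsRed, were expressed in E. coli BL21-CodonPlus and purified on Ni–NTA. A custom Agilent array was made double-stranded by primer extension with Cy5-dUTP and blocked with 2% BSA. It was incubated with 200 nM protein in PBS, 2% BSA, salmon testes DNA and 50 µM zinc acetate at 25 °C for 1 h, then washed. The binding signal is per-feature fluorescence intensity (arbitrary units) read on an Axon 4000B scanner.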

Sequence	binding signal
TGGTTAATTGAGATTTAATGATTTCAAACTTGAGAAAATACGGAGTCACCTAGTGCAG	29600 fluorescence intensity (a.u.)
TATTTGCATTCAAATTTTGATTTATGAAATTTGTTCAGAACGGAGTCACCTAGTGCAG	3470 fluorescence intensity (a.u.)
ATATATATATATATATATATATGGAATACATCATATCCAACGGAGTCACCTAGTGCAG	15600 fluorescence intensity (a.u.)
GTTTGATATTAAATGATGGTCGTCTTTTGCAACCGTCGAGCGGAGTCACCTAGTGCAG	3470 fluorescence intensity (a.u.)
TATAATTGATGGAACAAGTAGTATTTAGGAGTGACGAGTACGGAGTCACCTAGTGCAG	37200 fluorescence intensity (a.u.)
CCATTTCATTTGCACATCCAATCAGAATCAGGCGTAGGCACGGAGTCACCTAGTGCAG	4280 fluorescence intensity (a.u.)
AGTTAATTCAAAATAGAGTAGCCTAATGCGCTACTCTGGGCGGAGTCACCTAGTGCAG	7920 fluorescence intensity (a.u.)
CCCCGCTTGATAGATTCGAGCACGCACGCCGGGTTGGCGCCGGAGTCACCTAGTGCAG	9730 fluorescence intensity (a.u.)
ACGCAATTGATGCCATTTGCTTACAACACCATTGGCATTTCGGAGTCACCTAGTGCAG	5740 fluorescence intensity (a.u.)
CATAAATTAATTTGTTCACGTCACATTATATACAGTTGTACGGAGTCACCTAGTGCAG	55000 fluorescence intensity (a.u.)
AAATTCAATCTAGCTTTCTAATAGCCCGTCTTTGTTTAATCGGAGTCACCTAGTGCAG	3720 fluorescence intensity (a.u.)
ACGGAGGAGGAACAATCAAAATTGATAACAGGAAAATAGTCGGAGTCACCTAGTGCAG	4100 fluorescence intensity (a.u.)
CGTAATTAGGCTTAAAAGATTTCTCTCACGATTTACACGTCGGAGTCACCTAGTGCAG	35300 fluorescence intensity (a.u.)
TCAAAATCAGTCACAATAAATTCGGTTTTGATCCCGGTTTCGGAGTCACCTAGTGCAG	5110 fluorescence intensity (a.u.)
TTATTTGTTTTGTTTGTGATTTGCTTTATTATCAAAAGTACGGAGTCACCTAGTGCAG	4600 fluorescence intensity (a.u.)
TATGCAGTTTTACAATAATTTAATTAAAGTACAGTTTTGTCGGAGTCACCTAGTGCAG	5420 fluorescence intensity (a.u.)
ACGGATGATTAAAGTTTAATAGAGAAACTTATGATTGTGCCGGAGTCACCTAGTGCAG	34900 fluorescence intensity (a.u.)
AGCTTTGATTTAGAAACGTAGGTGCGGGATGTTGTTATTCCGGAGTCACCTAGTGCAG	6330 fluorescence intensity (a.u.)
AATGATTTTAAACCTGCAAATTGGGCGCAAATTGCTGATCCGGAGTCACCTAGTGCAG	21200 fluorescence intensity (a.u.)
AACTTAGACTGCGGTAAAGATCATTGGAGAGAGACTAGAGCGGAGTCACCTAGTGCAG	4610 fluorescence intensity (a.u.)
ATCTAATTGGGCCTCATTAACATGGGCTTACAGTGGGCCACGGAGTCACCTAGTGCAG	21100 fluorescence intensity (a.u.)

Sequence	binding signal
ATTACATAAATTGTGTGTAGATTGCCATGATTTGACAATGCGGAGTCACCTAGTGCAG	19900 fluorescence intensity (a.u.)
TGTAATTATATTTATATTAGTACCTCATCAGTGTCTTGAACGGAGTCACCTAGTGCAG	23900 fluorescence intensity (a.u.)
ACAAATTGAAGAAAGCATTTCCAGAACTGGTGCAAGAAGTCGGAGTCACCTAGTGCAG	17200 fluorescence intensity (a.u.)
GACACCATACTGATTAGTCTTTTCATGCATTGCAGTATTTCGGAGTCACCTAGTGCAG	5520 fluorescence intensity (a.u.)
ACATGGTGATTTAACATAATTTAGCCATGATTTTGAAGGCCGGAGTCACCTAGTGCAG	40200 fluorescence intensity (a.u.)
AGCATCATTGTAATTACACGGTAACTTTCATATAATTTAACGGAGTCACCTAGTGCAG	18400 fluorescence intensity (a.u.)
GGTATTAATTGTCGAGCCATGCATCCACGTGCACAGGGTACGGAGTCACCTAGTGCAG	9210 fluorescence intensity (a.u.)
ACTGAATGACAAGTTGAGGGATCTTCGGTGTACTATTGGGCGGAGTCACCTAGTGCAG	11400 fluorescence intensity (a.u.)
ATTAATTTGTGTGAAACTGACATACGAGTCTTACGGGGTTCGGAGTCACCTAGTGCAG	36200 fluorescence intensity (a.u.)
CAAATTTTGAGGGAGATTGAAGGCGACCTGTCCGGGTTCACGGAGTCACCTAGTGCAG	9740 fluorescence intensity (a.u.)
TGCTACATGATTATGTGAAATTAAAGATCTGAAGGAATGTCGGAGTCACCTAGTGCAG	20500 fluorescence intensity (a.u.)
ACATGAACACAGATATATTAATTGCTTGTAGTACGCCTGCCGGAGTCACCTAGTGCAG	3430 fluorescence intensity (a.u.)
GATTGAAATTGAAGATGATGTGACTGAAAAGTTGGGTATGCGGAGTCACCTAGTGCAG	27500 fluorescence intensity (a.u.)
TTATAATTAGAACTTTTATATGTGTGTTATGCACGACTTACGGAGTCACCTAGTGCAG	4050 fluorescence intensity (a.u.)
ATTGACTTGACGACCGCCATGAATTCATCTCATCTCATCTCGGAGTCACCTAGTGCAG	5970 fluorescence intensity (a.u.)
CTGATGATTCACCCATGATCGATTGCTCGATCCGTTTAAGCGGAGTCACCTAGTGCAG	3710 fluorescence intensity (a.u.)
TCTTAATTTCTATCAATAATTTAATTTAGCATATAATAACCGGAGTCACCTAGTGCAG	31300 fluorescence intensity (a.u.)
CCTGAATGATCATCAGCATCACTGTCTTCTCTTCAGGGATCGGAGTCACCTAGTGCAG	19300 fluorescence intensity (a.u.)
TTTTGATAGGACCACTATATATAAAGTGGTTCTTTACACGCGGAGTCACCTAGTGCAG	5620 fluorescence intensity (a.u.)
TGGTCCAATCACGAGTTCATTATCTGTAATTGGGACGAAGCGGAGTCACCTAGTGCAG	21200 fluorescence intensity (a.u.)
CTAATTGTAACAGGATTGGGCAATGGTCCGATCTGAGGGTCGGAGTCACCTAGTGCAG	18400 fluorescence intensity (a.u.)

Sequence	binding signal
TGCGAATTGTTTGATTAGTGCGCCGTGTCCGGAACCGTTTCGGAGTCACCTAGTGCAG	17600 fluorescence intensity (a.u.)
GTTCTTCTATTTCTCTTTTATCTTTTCATAGTTTCGATTTCGGAGTCACCTAGTGCAG	3500 fluorescence intensity (a.u.)
GATTGATGGATGGATACAGCTTTACCATTTCTTACATCCCCGGAGTCACCTAGTGCAG	31500 fluorescence intensity (a.u.)
CTCTTAATTAAATGCATCCATGCATGCGCATCATAATATGCGGAGTCACCTAGTGCAG	35100 fluorescence intensity (a.u.)
CATATGGATTAATTAGTACTCGATTCTGACAGTAATGGAACGGAGTCACCTAGTGCAG	11800 fluorescence intensity (a.u.)
ATGATTGTTCTTGTTATTGTGCATATGAATCATGATTAATCGGAGTCACCTAGTGCAG	26000 fluorescence intensity (a.u.)
AGTAATTCTTAAATTTCCTTTAGTGATAAAACAGGTCACACGGAGTCACCTAGTGCAG	3690 fluorescence intensity (a.u.)
CTGTACTAACCACTTTTGATTAGGAGTAGGAGTACTGATTCGGAGTCACCTAGTGCAG	3420 fluorescence intensity (a.u.)
GGTTAATTTCTTTCAATGGAATTGGGTCGCCTAGAACTGACGGAGTCACCTAGTGCAG	20800 fluorescence intensity (a.u.)
AGCTGATGATTTACGGTGTAAGCTGGGTTCTCCTAAAAGCCGGAGTCACCTAGTGCAG	26200 fluorescence intensity (a.u.)
CGCCATGATTTGACAATGTAGTGCTACAGTAAACATTTGACGGAGTCACCTAGTGCAG	12000 fluorescence intensity (a.u.)
ATTAACTGGCCGAGCTTCAGTTAATTCATTTGTGGCTCCACGGAGTCACCTAGTGCAG	6580 fluorescence intensity (a.u.)
ATTAACAATTATGCAACGGTTGACACTAGCTAGCGTACACCGGAGTCACCTAGTGCAG	4680 fluorescence intensity (a.u.)
TAATTTGTGCTAATTAGTAATTTTCATTTGTTTTGCATAGCGGAGTCACCTAGTGCAG	23800 fluorescence intensity (a.u.)
ACAGACAGACAGCTCCAACCAACACTTGCACGCTCAATCGCGGAGTCACCTAGTGCAG	4830 fluorescence intensity (a.u.)
TGGGATTGAGACCTTGCGTGAGGCTCATTGTTGTTGGGCCCGGAGTCACCTAGTGCAG	11600 fluorescence intensity (a.u.)
TAGAATAGATTAATAGTAAACCACCTCAATAGTATGTCTACGGAGTCACCTAGTGCAG	6770 fluorescence intensity (a.u.)
TTTCATAATTTGTCAGCAGCTATAATATTTTCGCTGAATACGGAGTCACCTAGTGCAG	3870 fluorescence intensity (a.u.)
TCGTTTCGTGGAATTTAATTAAATTTATTTTAAGGATTTTCGGAGTCACCTAGTGCAG	3940 fluorescence intensity (a.u.)
CCTGTAATTTATTTTGTTATTAGTCTACGTTTAATACTTCCGGAGTCACCTAGTGCAG	22800 fluorescence intensity (a.u.)
GTCTTAAGTTGATTTATATCATCTACTATTTTCGTTCCAACGGAGTCACCTAGTGCAG	10800 fluorescence intensity (a.u.)

Sequence	binding signal
AACTGCATCCATCGATTGATAGATACATGCACATAGCTGCCGGAGTCACCTAGTGCAG	7580 fluorescence intensity (a.u.)
AACAATCTAATTAATGTGAAATATTTTCTCTGTTACAAAACGGAGTCACCTAGTGCAG	12700 fluorescence intensity (a.u.)
TTGATGTTAATGAATCTAAATAGATATGTATGTCTAGATACGGAGTCACCTAGTGCAG	5640 fluorescence intensity (a.u.)
AGGTTTGACTGGTAGATATGATCGGACCGGTAGCTGAGAGCGGAGTCACCTAGTGCAG	13700 fluorescence intensity (a.u.)
ATTACTTATCTGATTTACGATCCGACTTAACCACTGTATTCGGAGTCACCTAGTGCAG	4150 fluorescence intensity (a.u.)
TTGTGTCAATCACTTTTCTCAACACTAGATCAATATCCTACGGAGTCACCTAGTGCAG	24400 fluorescence intensity (a.u.)
ATATGATTGGGATTGTCATCCCTTGGGTGGGTACGGATTGCGGAGTCACCTAGTGCAG	51600 fluorescence intensity (a.u.)
ATCAACAATTAAATTTAATTGACTATTGTTAGAGTGCCAACGGAGTCACCTAGTGCAG	47500 fluorescence intensity (a.u.)
AAAATATATAATTATTATTTATTTTATTATGACATGATATCGGAGTCACCTAGTGCAG	17400 fluorescence intensity (a.u.)
GAGATAATTTCGTGAATAAAGAAACCAGACGGTGCACGTACGGAGTCACCTAGTGCAG	7660 fluorescence intensity (a.u.)
CAGGTCTAATGATTGATTGCAAAGTTAGTTATAGCATACACGGAGTCACCTAGTGCAG	42400 fluorescence intensity (a.u.)
GAGGCGTGCTGATTGGACAAGCTAGCTAGCAATATAATGCCGGAGTCACCTAGTGCAG	11900 fluorescence intensity (a.u.)
AGGTAGTAGTAAATTACTTTCAATCCTAATTCATTTGTACCGGAGTCACCTAGTGCAG	3340 fluorescence intensity (a.u.)
GAATGATTTTACTGCCTTGCTAGAACTTCCAAAGATACCCCGGAGTCACCTAGTGCAG	5280 fluorescence intensity (a.u.)
TTATGGCTAATCATGAACTAATTAGACTCAAAAGATTCGTCGGAGTCACCTAGTGCAG	23700 fluorescence intensity (a.u.)
ATATGAATTGGCTATTAAATTGGTTATAGATGATTTGGAGCGGAGTCACCTAGTGCAG	31100 fluorescence intensity (a.u.)
ACTAGCTAACTAAATTTGAAAGAGACTAGCTAGCTGCTTGCGGAGTCACCTAGTGCAG	6300 fluorescence intensity (a.u.)
TTGATAACAAAATCATCATATATTTGTTAATTTTATCAAACGGAGTCACCTAGTGCAG	5380 fluorescence intensity (a.u.)
CACCGTGTTAATTTCAATTCGGAGTTTCGGGGTGTGGCACCGGAGTCACCTAGTGCAG	5740 fluorescence intensity (a.u.)
ATTAATGTACACGTGCCTTCAATTATATATCCGATACCAACGGAGTCACCTAGTGCAG	5010 fluorescence intensity (a.u.)
GAGATAGACCTAGGATTGTCTGTTATTGTCCTGTATCAGTCGGAGTCACCTAGTGCAG	3650 fluorescence intensity (a.u.)
